In all, about 44,000 compounds went through this assay and about 340 (0.77%) were called active. Another 5% or so got no clear call; they are omitted. Calls come from the whole dose curve; as a rule, active = well fitted inhibition curve with a large enough effect; inconclusive = small, poorly fitted or top-dose-only effect; inactive = flat fitted curve, though single readings scatter. The list shows a part of the results.
Assay: Acumen qHTS Assay for Inhibitors of the mTORC1 Signaling Pathway in MEF (Tsc2-/-, p53-/-) Cells: Sytravon; note: nearly all actives have a fitted effect of over 50% in size;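 for activity change, negative = inhibition: plate controls were DMSO for no effect and rapamycin for full effect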
Conditions: phospho-rpS6 immunofluorescence/PI, 24 h; series mostly up to 38.3 µM; activity change, negative = inhibition: at the top concentration
Method in brief: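 Tsc2-/-, p53-/- mouse embryonic fibroblasts (empty-vector line) exposed to compound 24 hrs at 37 C, fixed, immunostained for phospho-rpS6 and counterstained with propidium iodide. Acumen laser scanning gives % positive cells from Alexa 488/PI ratio, thresholded using 7.5 nM rapamycin; PI count gives viability.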
Potency is the fitted concentration of half-maximal effect.

Activity change, negative = inhibition, inactive:
N#Cc1ccc(C(=O)N2CCN(c3nc4ccc(F)cc4s3)CC2)cc1 0.327%
CCN(CC)CCN(C(=O)c1ccco1)c1nc2c(C)cccc2s1 -11.1%
COc1cc2c(cc1OC)C(c1ccc(Cl)cc1)N(c1ccc(C)c(F)c1)C(=O)C2 (stereo not given) -29.5%
COc1ccc(-c2oc3ncn4nc(-c5ccc(Cl)cc5)nc4c3c2-c2ccc(OC)cc2)cc1 -2.93%
Cc1ccc2c(c1)c(=O)c(C(=O)c1ccccc1)cn2Cc1ccccc1F -0.897%
COc1ccc(NC(=O)CC2C(=O)N(c3ccccc3)C(=O)N2CCC2=CCCCC2)cc1 (stereo not given) 0.0768%
CCOc1cccc(C(=O)Nc2nnc(S(=O)(=O)N(C)c3ccc(C)cc3)s2)c1 6.24%
COc1cc(NC(=O)C2CCN(S(=O)(=O)c3c(C)noc3/C=C/c3cccs3)CC2)cc(OC)c1 0.335%
COc1ccc(S(=O)(=O)N(CC(=O)Nc2ccc(OC)cc2OC)c2ccc(Cl)cc2)cc1 -10.4%
CCN1C(=O)c2ccccc2S(=O)c2ccc(C(=O)NCc3ccc(C)cc3)cc21 (stereo not given) -1.2%
COc1ccc(-c2nc(SCC(=O)c3ccc(Br)cc3)n[nH]2)cc1 -16.9%
Cc1c(CNC2CCC(C)CC2)c(C(=O)O)c(C)n1Cc1ccccc1F (stereo not given) 1.22%
COc1ccc(/C=C(/C#N)c2nc(-c3cc4ccccc4oc3=O)cs2)cc1 -3.84%
CCC1CN(C(=O)Nc2ccccc2C(F)(F)F)c2ccccc2O1 (stereo not given) -15.6%
Cc1cccc(N2CC(c3nc4ccc(C)cc4[nH]3)CC2=O)c1 (stereo not given) -3.42%
CCOc1ccc(NC(=O)CC2C(=O)N(c3ccc(C)cc3)C(=O)N2C2CCCCC2)cc1 (stereo not given) 0.0187%
O=C(NC1(C(F)(F)F)N=C(c2ccccc2)N(C2CCCCC2)C1=O)c1ccc(F)cc1 (stereo not given) -2.96%
Cc1cc(C)n(CCc2nc3c4ccccc4nc(SCc4ccc(Cl)cc4)n3n2)n1 -2.8%
Cn1ccc2cc(S(=O)(=O)N3CCCC(C(=O)NCc4ccc(F)cc4)C3)ccc21 (stereo not given) -9.25%
CCOc1ccccc1-c1noc(CCCC(=O)Nc2cccc(C(F)(F)F)c2)n1 -6.92%
CC(=O)Nc1ccc(NC(=O)c2cc3c(=O)n(Cc4cccnc4)ccc3nc2C)cc1 -0.18%
N#Cc1cccc(NC(=O)C2CCN(c3cnccn3)CC2)c1 -1.83%
Cc1ccc(-n2nc3cc(C)c(NC(=O)COc4ccccc4)cc3n2)cc1 -4.18%
Cc1ccc(C(=O)NCC(=O)OCc2cc(=O)n3c(C)csc3n2)cc1 -2.38%
CCc1cc2c(cc3c(=O)n(CC(=O)NC4CCCCC4)nc(CC)n32)s1 0.26%
Cc1cn(C)c(CC(=O)N2CCN(c3cccc(C(F)(F)F)c3)CC2)c1C(=O)O -10.1%
CCOC(=O)CCN(c1ccccc1)S(=O)(=O)c1cc(-c2cc(C)no2)ccc1C -12.8%
Cc1cc(C)c2oc(C(=O)Nc3c(C)n(C)n(-c4ccccc4)c3=O)cc(=O)c2c1 -10.4%
O=C(NCC(c1cccnc1)N1CCc2ccccc21)c1ccc(F)c(F)c1 (stereo not given) -7.72%
CC(=O)N1CCc2c(sc3c2c(=O)n(-c2ccccc2C)c(=O)n3CC(=O)c2ccccc2)C1 -0.864%
CC(C)n1cc2c(c1-c1ccccc1Cl)c(=O)n(C)c(=O)n2C -1.01%
Cc1ccc(C)c(NC(=O)Cn2c(=O)n(-c3ccccc3C)c(=O)c3c2c2cc(C)ccc2n3C)c1 -6.43%
Cc1cccc(C(=O)Nc2cccc(OCc3cc(=O)n4cc(C)sc4n3)c2)c1 5.33%
COc1ccccc1-c1nc2c(c(SCC(=O)Nc3ccccc3F)n1)Cc1c(CO)cnc(C)c1O2 3.56%
COc1ccccc1C(=O)Nc1c(C(=O)N2CCN(c3ccc(F)cc3)CC2)oc2ccccc12 -6.04%
COc1ccc(-c2cc(-c3ccccc3)c(C#N)c(SCC(O)CS(=O)(=O)Cc3ccccc3)n2)cc1 (stereo not given) -3.36%
CCN1CCN(CCCNC(=O)Cn2c(-c3cccs3)cc3ccccc32)CC1 -9.57%
Cc1ccc2c(=O)cc(C(=O)N(Cc3ccccc3Cl)C3CCS(=O)(=O)C3)oc2c1 (stereo not given) 3.33%
CC(O)CNC(=O)C(=O)Nc1c2c(nn1-c1ccc(Cl)cc1)CSC2 (stereo not given) -0.307%
CCOc1ccc(CCNC(=O)CS(=O)(=O)Cc2nc(-c3cccc(Cl)c3)oc2C)cc1 0.133%
COc1ccc(NC(=O)C2CCCN(C(=O)c3cnn(-c4ccccc4)c3-n3cccc3)C2)cc1 (stereo not given) 0.486%
O=C(Nc1ccc(F)cc1)c1ccc(Cn2nc(N3CCN(c4ccccc4)CC3)ccc2=O)o1 -21.9%
COC(=O)c1ccc(NC(=O)CCc2c(C)nn(-c3ccc(N4CCOCC4)nn3)c2C)cc1 1.52%
COc1ccc(CCNc2nc(-c3ccc(Cl)cc3)cc(C(F)(F)F)n2)cc1OC -20.4%
CCOC(=O)c1c(C)[nH]c(C)c1S(=O)(=O)N1CCC(C(=O)N2CCN(c3cccc(C)c3C)CC2)CC1 -16.1%
COc1ccccc1-c1nc2c(c(SCc3ccc(F)cc3Cl)n1)Cc1c(CO)cnc(C)c1O2 3.5%
COc1cccc(-c2cc(C(=O)N3CCN(c4ccccc4OC)CC3)no2)c1 -4.62%
COc1ccc(Cl)cc1NC(=O)Cc1coc2c(C)c(C)ccc12 -19%
CCc1ccc(NC(=O)c2sc3nc4c(cc3c2N)CN(CC)CC4)cc1 -3.55%
CCc1cccc(NC(=O)Cn2c(=O)c(C(F)(F)F)nc3ccccc32)c1 -12.4%
Cc1coc2cc3oc(=O)c(CC(=O)N4CCCCC4)c(C)c3cc12 3.38%
Cc1cccc(CSc2nc3cc(C(=O)NC4CCCC4)ccc3c(=O)n2Cc2ccccc2)c1 -8.52%
Cc1cc(C)c2c(=O)cc(C(=O)Nc3nc4ccc(F)cc4s3)oc2c1 1.39%
CCC(CC)C(=O)Nc1c(C(=O)N2CCN(c3ccccc3)CC2)oc2ccccc12 -7.62%
CCCCNC(=O)c1cccc(-n2cnc3cccnc32)c1C -7.42%
CC1CCCCN1C(=O)c1ccc2c(c1)N(Cc1cccc(Cl)c1)C(=O)c1ccccc1S2=O (stereo not given) 2.27%
Cc1cc(N(C)Cc2ccccc2)n2nc(-c3ccc(C(C)(C)C)cc3)nc2n1 3.11%
CC1CCN(c2nc3c(-c4cccc(Br)c4)nnn3c3ccccc23)CC1 1.39%
COc1ccc(OCCn2nnc3sc4c(c3c2=O)CCC(C(C)(C)C)C4)cc1 (stereo not given) 4.63%

Potency, active:
CCCN(CCC)CC(O)Cn1cc(/C=C/C(=O)c2ccc(OC)cc2)c2ccccc21 (stereo not given) 14.7 µM

From PubChem BioAssay AID493208 (National Center for Advancing Translational Sciences (NCATS), 2011)
